Source: paper PMC4336329 (PLoS ONE, 2015)
About 2,200 (0.71%) of roughly 310,000 compounds showed an effect of 50% or more. Effects have a minus sign here. The list shows a part of the results.

target: human ether-à-go-go-related gene (hERG) potassium channel (human, UniProt Q12809); assay: primary screen, population patch clamp on CHO cells stably expressing hERG
Sequence (Q12809 whole entry, looked up): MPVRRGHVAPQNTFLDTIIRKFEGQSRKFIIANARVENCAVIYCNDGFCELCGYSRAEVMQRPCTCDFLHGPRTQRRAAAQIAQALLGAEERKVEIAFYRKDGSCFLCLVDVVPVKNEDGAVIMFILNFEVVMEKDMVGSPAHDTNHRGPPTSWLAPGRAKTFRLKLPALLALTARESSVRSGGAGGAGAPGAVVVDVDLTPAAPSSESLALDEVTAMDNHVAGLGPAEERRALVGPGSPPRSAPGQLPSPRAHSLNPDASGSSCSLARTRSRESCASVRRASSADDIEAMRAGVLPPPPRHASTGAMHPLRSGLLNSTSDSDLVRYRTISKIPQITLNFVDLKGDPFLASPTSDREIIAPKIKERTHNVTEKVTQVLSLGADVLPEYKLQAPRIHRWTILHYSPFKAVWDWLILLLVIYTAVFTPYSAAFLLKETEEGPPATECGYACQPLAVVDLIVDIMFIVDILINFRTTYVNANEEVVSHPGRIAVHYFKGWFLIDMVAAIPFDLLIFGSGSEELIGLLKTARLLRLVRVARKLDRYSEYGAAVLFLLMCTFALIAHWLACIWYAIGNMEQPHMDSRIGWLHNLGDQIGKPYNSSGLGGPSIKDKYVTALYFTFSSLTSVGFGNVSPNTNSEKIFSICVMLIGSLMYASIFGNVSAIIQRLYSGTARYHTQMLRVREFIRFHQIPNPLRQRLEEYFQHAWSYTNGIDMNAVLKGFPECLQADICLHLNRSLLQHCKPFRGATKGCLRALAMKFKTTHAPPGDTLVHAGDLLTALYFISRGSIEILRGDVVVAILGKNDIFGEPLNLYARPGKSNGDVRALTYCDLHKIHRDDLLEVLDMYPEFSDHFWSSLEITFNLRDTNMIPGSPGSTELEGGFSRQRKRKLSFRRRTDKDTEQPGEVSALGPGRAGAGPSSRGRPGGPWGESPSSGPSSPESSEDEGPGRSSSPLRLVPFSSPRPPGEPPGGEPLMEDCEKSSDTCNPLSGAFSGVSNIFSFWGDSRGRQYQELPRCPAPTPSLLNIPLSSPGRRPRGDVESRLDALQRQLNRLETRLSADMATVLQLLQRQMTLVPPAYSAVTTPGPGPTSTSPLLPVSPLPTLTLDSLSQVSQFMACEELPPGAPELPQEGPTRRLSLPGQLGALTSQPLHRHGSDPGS

Compound | hERG current change (%, negative = inhibition) at 1uM [%]
Cc1c(CC(=O)NCCCCCC(=O)O)c(=O)oc2c(C)c3oc4c(c3cc12)CCCC4 | 17.6
Cc1ccn2cc(CCNC(=O)Cc3cccs3)nc2c1 | 5.14
COc1ccc(C2CN(C)CC2C(=O)c2ccc(F)cc2)cc1Cl (stereo not shown) | -28.2
CC1CCN(C(=O)c2ccc(N3C(=O)C4CCC(C)CC4C3=O)cc2)CC1 (stereo not shown) | 7.55
Cc1c(Cl)cnn1CC(=O)NC1C(=O)N2C(C(=O)O)=C(CSc3nnnn3C)CSC12 (stereo not shown) | 13.9
COc1ccc(Cl)cc1NC(=O)CN(C)C(=O)Cn1cnc2c1c(=O)n(C)c(=O)n2C | 4.09
COc1ccccc1-c1cnn2c(NC3CCCC3)cc(C)nc12 | 18.8
O=C(Nc1cc(S(=O)(=O)N2CCOCC2)ccc1N1CCOCC1)c1ccccc1F | 10.6
CN(C)C=O.O=C(Nc1cccc(S(=O)(=O)NC2=NCCCCC2)c1)c1cc(-c2ccco2)nc2ccccc12 | 19
CC(C)C(C(=O)Nc1ccccc1F)N1C(=O)c2ccccc2C1=O (stereo not shown) | 10.9
CCN(CC)CCN(C(=O)C1=COCCO1)c1nc2cc(C)cc(C)c2s1.Cl | -36.7
Cc1cc(S(=O)(=O)N2CCN(c3ccccc3C)CC2)ccc1F | 7.86
Cc1c(NC(=O)CN2CCCC(C)C2)ccc2nsnc12 (stereo not shown) | 19.4
Cn1c(=O)n(CC#N)c2ccccc21 | 18
C/C(=N\Nc1ncc(Cl)cc1Cl)c1ccc(C#N)cc1 | 0.293
CCOC(=O)c1c(S(=O)(=O)NCc2ccc(OC)cc2)c(C)n(C)c1C | 6.48
CN(C)Cc1c(O)ccc2ccccc12 | 9.8
COc1ccc2nc(NC(=O)NC3CCCCC3)sc2c1 | 13.7
Cn1c(SCC(=O)NC2CCCC2)nnc1-c1ccccn1 | 13.5
O=C(O)c1ccc(CNC(=O)c2ccccc2NC(=O)c2ccc([N+](=O)[O-])cc2)cc1 | 15.8
CCc1ccccc1NC(=O)C1CC(c2ccc(F)cc2)=NO1 (stereo not shown) | 14
COc1cc(C2/C(=C(\O)c3cc(C)ccc3C)C(=O)C(=O)N2CCN(C)C)ccc1O (stereo not shown) | -3.5
N#CC1=C(N)NC(SCC(=O)Nc2ccccc2)=C(C#N)C12CCCC2 | 9.93

Compound | hERG current change (%, negative = inhibition) at 1uM [%]
COc1ccccc1NCCC(=O)OCC(=O)NC1CCCC(C)C1C (stereo not shown) | 10.9
CCN=C1NN=C(c2cc(C)n(Cc3ccco3)c2C)CS1 | 12.5
Cc1nc2ccccc2nc1N/N=C/c1ccc(O)cc1O | 6.03
COC(=O)c1cc(C(C)=O)n2ccccc12 | -2.71
CCOC(=O)NC(c1ccccc1)C1CCCCC1=O (stereo not shown) | 9.1
CC(NC(=O)C(c1ccccc1)c1ccccc1)C(=O)N1CCCCC1 (stereo not shown) | 3.85
C[C@@H](C(O)c1ccccc1)N(C)C(=O)CCc1ccccc1 (stereo partly shown) | -0.658
COCCN(CCOC)C(=O)c1ccc(CSc2nc3ccccc3s2)cc1 | 1.94
O=C(NCCN1CCOCC1)c1ccc(-c2ccccc2)cc1 | 1.65
Cc1cc2c(C)ccc(C)c2nc1SCC(=O)c1cccs1 | 19.6
CCN(Cc1ccncc1)C(=O)C1CCN(S(=O)(=O)c2cccs2)CC1 | 9.02
CCN(Cc1ccccc1)C(=O)c1cc(S(=O)(=O)N2CCOCC2)ccc1N1CCCC1 | 3.38
CCCCC1C2=C(CCCC2=O)OC2=C1C(=O)CCC2 | -1.95
O=C(Nc1cccc(NC(=O)c2cccs2)c1)c1ccc(Br)o1 | 5.96
CCOc1ccc(C(=O)Nc2cc(C)on2)cc1 | 11.3
CCC(C)c1ccc(NC(=O)Nc2cnccn2)cc1 (stereo not shown) | 7.59
Cc1ccc(C(=O)N2CCC3(CC2)NCCc2[nH]cnc23)cc1C | 9
CC(OC(=O)c1ccc(F)c(S(=O)(=O)N2CCOCC2)c1)C(=O)NCC1CCCCC1 (stereo not shown) | 14.6
Cc1ccc(-n2nc(C)c(/C=N/NC(=O)c3cccs3)c2Cl)cc1 | 7.56
CCCCCCCC(=O)N1c2ccccc2NC(=O)C1CC(=O)Nc1ccc(C(=O)O)cc1 (stereo not shown) | 11.4
COc1ccc(NS(=O)(=O)c2cc(OC)ccc2NC(=O)c2cc(C)oc2C)cc1 | 5.1
COc1ccc2c(OC)c3ccoc3nc2c1OC | 10.9
Cc1ccc(C(=O)N/N=C/c2cc(Br)ccc2O)cn1 | 9.5
